# Assay results from the supplement of paper PMC8728848.
# The list shows a part of the results.
# How the values were obtained:
# Assay in all cases: glycan array binding signal (z-score within array); higher = stronger binding
# Conditions in all cases: glycan notation: IUPAC condensed, linker removed
# [1] = target: Gal(b1-3)GlcNAc(b1-2)Man(a1-3)[Gal(b1-3)GlcNAc(b1-2)Man(a1-6)]Man(b1-4)GlcNAc(b1-4)GlcNAc
# Outline: (§1)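 Negative Z-scores can be read as non-binding. The Z-score is calculated within each array and then averaged across arrays of one protein sequence at different concentrations or buffers and across linkers. Arrays, 3228 in all, were curated from the Consortium for Functional Glycomics database and kept only where the protein sequence was available.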
# [2] = target: Gal(b1-3)GlcNAc(b1-2)Man(a1-3)[Gal(b1-3)GlcNAc(b1-2)Man(a1-6)]Man(b1-4)GlcNAc(b1-4)[Fuc(a1-6)]GlcNAc
# Outline: as §1
# [3] = target: Gal(b1-3)GlcNAc(b1-2)Man(a1-3)[GlcNAc(b1-4)][Gal(b1-3)GlcNAc(b1-2)Man(a1-6)]Man(b1-4)GlcNAc(b1-4)GlcNAc
# Outline: as §1
# [4] = target: Gal(b1-3)GlcNAc(b1-2)[Gal(b1-3)GlcNAc(b1-6)]Man(a1-6)[Gal(b1-3)GlcNAc(b1-2)Man(a1-3)]Man(b1-4)GlcNAc(b1-4)GlcNAc
# Outline: as §1
# [5] = target: Gal(b1-3)GlcNAc(b1-3)Gal(b1-3)GlcNAc
# Outline: as §1
# [6] = target: Gal(b1-3)GlcNAc(b1-3)Gal(b1-4)Glc
# Outline: as §1
# [7] = target: Gal(b1-3)GlcNAc(b1-3)Gal(b1-4)GlcNAc
# Outline: as §1
# [8] = target: Gal(b1-3)GlcNAc(b1-3)Gal(b1-4)GlcNAc(b1-2)Man(a1-3)[Gal(b1-3)GlcNAc(b1-3)Gal(b1-4)GlcNAc(b1-2)Man(a1-6)]Man(b1-4)GlcNAc(b1-4)GlcNAc
# Outline: as §1
# [9] = target: Gal(b1-3)GlcNAc(b1-3)Gal(b1-4)GlcNAc(b1-2)[Gal(b1-3)GlcNAc(b1-3)Gal(b1-4)GlcNAc(b1-6)]Man(a1-6)[Gal(b1-3)GlcNAc(b1-3)Gal(b1-4)GlcNAc(b1-2)Man(a1-3)]Man(b1-4)GlcNAc(b1-4)[Fuc(a1-6)]GlcNAc
# Outline: as §1
# [10] = target: Gal(b1-3)GlcNAc(b1-3)Gal(b1-4)GlcNAc(b1-3)Gal(b1-4)GlcNAc(b1-2)[Gal(b1-3)GlcNAc(b1-3)Gal(b1-4)GlcNAc(b1-3)Gal(b1-4)GlcNAc(b1-6)]Man(a1-6)[Gal(b1-3)GlcNAc(b1-3)Gal(b1-4)GlcNAc(b1-3)Gal(b1-4)GlcNAc(b1-2)Man(a1-3)]Man(b1-4)GlcNAc(b1-4)[Fuc(a1-6)]GlcNAc
# Outline: as §1
# [11] = target: Gal(b1-3)GlcNAc(b1-3)Gal(b1-4)GlcNAc(b1-6)[Gal(b1-3)GlcNAc(b1-3)]Gal(b1-4)Glc
# Outline: as §1
# [12] = target: Gal(b1-3)GlcNAc(b1-3)Gal(b1-4)[Fuc(a1-3)]GlcNAc
# Outline: as §1
# [13] = target: Gal(b1-3)GlcNAc(b1-3)Gal(b1-4)[Fuc(a1-3)]GlcNAc(b1-6)[Gal(b1-3)GlcNAc(b1-3)]Gal(b1-4)Glc
# Outline: as §1
# [14] = target: Gal(b1-3)GlcNAc(b1-3)GalNAc
# Outline: as §1
# [15] = target: Gal(b1-3)GlcNAc(b1-6)Gal(b1-4)GlcNAc
# Outline: as §1
# [16] = target: Gal(b1-3)GlcNAc(b1-6)GalNAc
# Outline: as §1
# [17] = target: Gal(b1-3)GlcNAc(b1-6)[Gal(b1-3)]GalNAc
# Outline: as §1
# Gal(b1-3)GlcNAc6S = target: Gal(b1-3)GlcNAc6S
# Outline: as §1
# [18] = target: Gal(b1-3)[Fuc(a1-4)]GlcNAc
# Outline: as §1
# [19] = target: Gal(b1-3)[Fuc(a1-4)]GlcNAc(b1-2)Man
# Outline: as §1
# [20] = target: Gal(b1-3)[Fuc(a1-4)]GlcNAc(b1-2)Man(a1-3)[Gal(b1-3)[Fuc(a1-4)]GlcNAc(b1-2)Man(a1-6)]Man(b1-4)GlcNAc(b1-4)[Fuc(a1-6)]GlcNAc
# Outline: as §1
# [21] = target: Gal(b1-3)[Fuc(a1-4)]GlcNAc(b1-3)Gal(b1-3)[Fuc(a1-4)]GlcNAc
# Outline: as §1
# [22] = target: Gal(b1-3)[Fuc(a1-4)]GlcNAc(b1-3)Gal(b1-4)[Fuc(a1-3)]GlcNAc
# Outline: as §1
# [23] = target: Gal(b1-3)[Fuc(a1-4)]GlcNAc(b1-6)GalNAc
# Outline: as §1
# [24] = target: Gal(b1-3)[GlcNAc(b1-6)]GalNAc
# Outline: as §1
# [25] = target: Gal(b1-3)[Neu5Ac(a2-6)]GalNAc
# Outline: as §1
# [26] = target: Gal(b1-3)[Neu5Ac(a2-6)]GlcNAc(b1-4)Gal(b1-4)Glc
# Outline: as §1
# [27] = target: Gal(b1-3)[Neu5Ac(b2-6)]GalNAc
# Outline: as §1
# Gal(b1-4)Gal = target: Gal(b1-4)Gal
# Outline: as §1
# [28] = target: Gal(b1-4)GalNAc(a1-3)[Fuc(a1-2)]Gal(b1-4)GlcNAc
# Outline: as §1
# [29] = target: Gal(b1-4)GalNAc(b1-3)[Fuc(a1-2)]Gal(b1-4)GlcNAc
# Outline: as §1
# Gal(b1-4)Glc = target: Gal(b1-4)Glc
# Outline: as §1
# Gal(b1-4)Glc6S = target: Gal(b1-4)Glc6S
# Outline: as §1
# Gal(b1-4)GlcNAc = target: Gal(b1-4)GlcNAc
# Outline: as §1
# [30] = target: Gal(b1-4)GlcNAc(a1-6)Gal(b1-4)GlcNAc
# Outline: as §1
# Gal(b1-4)GlcNAc(b1-2)Man = target: Gal(b1-4)GlcNAc(b1-2)Man
# Outline: as §1
# [31] = target: Gal(b1-4)GlcNAc(b1-2)Man(a1-3)Man(b1-4)GlcNAc(b1-4)GlcNAc
# Outline: as §1
binder,measurement,setting,value
DrGal9 (Danio rerio) (protein) MAFYQQPPYYNPRIPFSGPIQGGLQDGKSIIISGRVLPGANRFHVNLQCGSHSEANVALHFNPRYEDTDYVVNNSYLNRTWGSEERKYESPFAQGQTFTLQILVAQDKYKISTNGRHFMDYKHRIPFTQVDTVAVEGMVEVNSVAFQNPAGFIPPQAGYAPQYAVPPGCGFPAFPSAPNYTIPHKTVMNGGLHPGKNIVINGVVNPNAKSIIFNLCYRSGIAFHYNPRFDENVVVRNTNQMEKWGAEERFGGLPFHKGQPFQVTISCNPQHYNVFVNGKQEHTYKHRYTKLNDIDILEICGDLQLTSVQA,glycan array binding signal (z-score),[1],1.5
same,glycan array binding signal (z-score),[2],0.27
same,glycan array binding signal (z-score),[3],-0.044
same,glycan array binding signal (z-score),[4],1.15
same,glycan array binding signal (z-score),[5],1.37
same,glycan array binding signal (z-score),[6],0.756
same,glycan array binding signal (z-score),[7],-0.053
same,glycan array binding signal (z-score),[8],2.44
same,glycan array binding signal (z-score),[9],2.28
same,glycan array binding signal (z-score),[10],2.38
same,glycan array binding signal (z-score),[11],1.3
same,glycan array binding signal (z-score),[12],-0.051
same,glycan array binding signal (z-score),[13],0.234
same,glycan array binding signal (z-score),[14],-0.193
same,glycan array binding signal (z-score),[15],-0.008
same,glycan array binding signal (z-score),[16],-0.157
same,glycan array binding signal (z-score),[17],0.477
same,glycan array binding signal (z-score),Gal(b1-3)GlcNAc6S,-0.12
same,glycan array binding signal (z-score),[18],-0.388
same,glycan array binding signal (z-score),[19],-0.366
same,glycan array binding signal (z-score),[20],-0.344
same,glycan array binding signal (z-score),[21],-0.392
same,glycan array binding signal (z-score),[22],-0.404
same,glycan array binding signal (z-score),[23],-0.368
same,glycan array binding signal (z-score),[24],-0.236
same,glycan array binding signal (z-score),[25],-0.397
same,glycan array binding signal (z-score),[26],-0.276
same,glycan array binding signal (z-score),[27],-0.396
same,glycan array binding signal (z-score),Gal(b1-4)Gal,-0.413
same,glycan array binding signal (z-score),[28],-0.375
same,glycan array binding signal (z-score),[29],-0.38
same,glycan array binding signal (z-score),Gal(b1-4)Glc,-0.354
same,glycan array binding signal (z-score),Gal(b1-4)Glc6S,0.002
same,glycan array binding signal (z-score),Gal(b1-4)GlcNAc,-0.289
same,glycan array binding signal (z-score),[30],-0.269
same,glycan array binding signal (z-score),Gal(b1-4)GlcNAc(b1-2)Man,-0.367
same,glycan array binding signal (z-score),[31],0.045
